The campaign covered roughly 310,000 compounds. About 2,200 (0.71%) showed an effect of 50% or more. Effects have a minus sign here. Some of the results follow.
Each compound was assayed against human ether-à-go-go-related gene (hERG) potassium channel (human, UniProt Q12809) (assay: primary screen, population patch clamp on CHO cells stably expressing hERG).
Chain of human ether-à-go-go-related gene (hERG) potassium channel (Q12809 whole entry, looked up): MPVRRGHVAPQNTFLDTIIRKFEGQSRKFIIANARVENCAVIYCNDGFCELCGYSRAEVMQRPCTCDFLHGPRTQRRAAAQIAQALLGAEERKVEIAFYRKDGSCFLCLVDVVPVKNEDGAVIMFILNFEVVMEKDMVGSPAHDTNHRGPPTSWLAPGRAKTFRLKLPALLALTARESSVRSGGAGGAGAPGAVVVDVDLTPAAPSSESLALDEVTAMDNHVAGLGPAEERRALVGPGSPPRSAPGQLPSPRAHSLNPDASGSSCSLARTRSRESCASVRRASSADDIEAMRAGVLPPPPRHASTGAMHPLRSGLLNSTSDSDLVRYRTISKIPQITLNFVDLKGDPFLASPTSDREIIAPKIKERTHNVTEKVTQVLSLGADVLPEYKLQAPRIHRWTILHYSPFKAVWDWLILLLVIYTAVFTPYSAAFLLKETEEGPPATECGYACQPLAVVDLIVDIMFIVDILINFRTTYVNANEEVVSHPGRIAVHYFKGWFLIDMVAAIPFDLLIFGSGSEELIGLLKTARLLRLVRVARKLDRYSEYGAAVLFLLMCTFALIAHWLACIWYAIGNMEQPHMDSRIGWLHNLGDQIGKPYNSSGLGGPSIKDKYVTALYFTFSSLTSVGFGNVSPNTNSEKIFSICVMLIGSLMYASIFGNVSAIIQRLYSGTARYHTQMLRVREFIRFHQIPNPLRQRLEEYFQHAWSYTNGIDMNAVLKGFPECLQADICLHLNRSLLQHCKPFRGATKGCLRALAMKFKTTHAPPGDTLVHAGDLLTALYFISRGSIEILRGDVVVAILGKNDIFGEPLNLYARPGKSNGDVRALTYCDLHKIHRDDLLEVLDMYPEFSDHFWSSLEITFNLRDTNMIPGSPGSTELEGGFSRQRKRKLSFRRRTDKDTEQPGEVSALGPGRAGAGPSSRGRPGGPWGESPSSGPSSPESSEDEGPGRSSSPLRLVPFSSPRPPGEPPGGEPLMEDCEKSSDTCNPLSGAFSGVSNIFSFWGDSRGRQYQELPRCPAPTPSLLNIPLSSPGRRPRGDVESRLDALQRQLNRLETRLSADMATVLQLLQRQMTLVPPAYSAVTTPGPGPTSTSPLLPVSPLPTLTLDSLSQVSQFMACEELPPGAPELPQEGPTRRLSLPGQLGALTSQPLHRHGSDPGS

Row | Structure (SMILES) | hERG current change (%, negative = inhibition) at 1uM
1 | O=C(NC1CCCC1)C1C2C=CC3(CN(Cc4cccs4)C(=O)C13)O2 (stereo not shown) | 9.42%
2 | Cc1cc(C(=O)CSc2nc3ccccc3o2)c(C)n1C1CC1 | 12%
3 | Cc1cccc(/C=N/NC(=O)c2ccccc2OCc2cccc(Br)c2)n1 | 11%
4 | CCCCNc1oc(-c2ccc(OC)cc2)nc1S(=O)(=O)c1ccccc1 | 6.01%
5 | O=C(/C(=C/O)N=Nc1ccccc1)c1cccs1 | 11.9%
6 | COC(=O)N/N=C/c1ccc(-c2cc(Cl)cc(Cl)c2)o1 | 3.07%
7 | OCC[C@@H]1C[C@@H](O)[C@H](O)[C@]2(CCCc3ccccc3O2)O1 | 2.37%
8 | Cn1c(=O)[nH]c2c(nc(-c3ccc(Cl)cc3)n2C)c1=O | 16.8%
9 | CCOc1cc(N2CCOCC2)c(OCC)cc1NC(=O)c1[nH]c(C)c(C(C)=O)c1C | 10.7%
10 | C=CCn1c(COc2ccc(CC)cc2)nnc1SCC(=O)N(C)C1CCS(=O)(=O)C1 (stereo not shown) | 6.15%
11 | CCc1nc(C)cn1S(=O)(=O)c1ccc(Br)cc1 | 16.2%
12 | COC(CNC(=O)c1ccc2nc(-c3cccs3)c(-c3cccs3)nc2c1)OC | 6.81%
13 | COc1ccc(NC(=O)C(=O)N2N=C3CCCCC3C2(O)C(F)(F)F)cc1 (stereo not shown) | 10.8%
14 | COc1cc(NC(=O)n2ncc3cc(Cl)ccc32)cc(OC)c1 | 16.6%
15 | CC1(C)CSC(=S)N1S(=O)(=O)c1ccccc1 | 3.38%
16 | COc1ccc(C(=O)NCC(=O)N2CCN(c3ncccn3)CC2)cc1OC | 19.6%
17 | Cc1ccc(CS(=O)(=O)c2ncc(Cl)c(C(=O)Nc3nnc(C(C)C)s3)n2)cc1 | 21.8%
18 | COc1ccc(S(=O)(=O)N(C)C)cc1NC(=O)CCNC(=O)c1ccccc1OC | 16.4%
19 | CCC(C)NC(=O)Cc1cn(C)c2ccccc12 (stereo not shown) | -2.35%
20 | C[C@H](NC(=O)c1nc[nH]c1C(=O)N[C@H](C)c1ccccc1)C(=O)OCc1ccccc1 | 10.7%
21 | O=C(CCNC(=O)c1ccc([N+](=O)[O-])cc1)Nc1ccc(N2CCOCC2)cc1N1CCOCC1 | 7.69%
22 | O=C(O)C(=O)O.OC(COCc1ccc(Cl)cc1)CN1CC=C(c2ccccc2)CC1 (stereo not shown) | -84.2%
23 | Cc1[nH]n(-c2ccc(Cl)cc2)c(=O)c1C(=O)c1ccccc1 | 12.5%
24 | O=c1c2ccccc2[nH]c(=S)n1CC1CCCO1 (stereo not shown) | 10.7%
25 | COc1ccc(C(=O)NCC(=O)OCC(=O)N(C)c2ccccc2)cc1 | 13%
26 | Cc1cc(C(=O)NNC(=O)CCCCC(=O)NNC(=O)c2cc(C)[nH]n2)n[nH]1 | -4.08%
27 | CCC(Cc1ccccc1)NC(=O)CN(C)S(=O)(=O)c1ccc2c(c1)c(=O)n(C)c(=O)n2C (stereo not shown) | -5.51%
28 | CC[C@@H](C)[C@@H](C(=O)N1CCN(C(=O)OC(C)(C)C)CC1)n1cc(CCC(=O)O)nn1 | 15.4%

Row | Structure (SMILES) | hERG current change (%, negative = inhibition) at 1uM
29 | Cc1ccc(NC(=O)COC(=O)CN2C(=O)C3CCCCC3C2=O)cc1C (stereo not shown) | 8.33%
30 | Cc1cc(C)n(-c2ccc(C(=O)Nc3cccnc3)cc2)n1 | 11.3%
31 | O=C(NCc1ccc(F)cc1)C1CC(=O)N(C2CCCCCCC2)C1 (stereo not shown) | 18.6%
32 | COc1ccccc1NC(=O)c1ccc(NC(=O)CSc2nncn2C)cc1 | 5.75%
33 | Cc1nnc(NC(=O)C2c3ccccc3Oc3ccccc32)s1 | 8.55%
34 | O=C(COC(=O)c1ccncc1)NC(=O)C1CCCCC1 | 0.192%
35 | Fc1ccc2nc(-c3ccccc3)nc(SCc3nnc(-c4ccccc4)o3)c2c1 | -1.73%
36 | CCOC(=O)N1CCN(C(=O)CN(Cc2ccccc2)S(=O)(=O)c2ccc(OC)c(Cl)c2)CC1 | 7.29%
37 | COC(=O)C1(C)NC(c2ccc(F)cc2)C2C(=O)N(c3ccccc3)C(=O)C21 (stereo not shown) | 11.3%
38 | CCOc1ccc(NC(=O)CCN2CCN(c3ccccc3OC)CC2)cc1 | 0.808%
39 | CCOC(=O)C(C)Oc1cccc2c(=O)n(CC(=O)NCc3ccc4c(c3)OCO4)ccc12 (stereo not shown) | 18.5%
40 | O=C(Cn1cccc1C(=O)c1ccccc1)NCCC1=CCCCC1 | -7.9%
41 | Cc1cc(C)c[n+](CC(=O)c2ccccc2)c1.[Br-] | 20.1%
42 | O=C(Nc1ccn(Cc2ccccc2)n1)c1n[nH]c([N+](=O)[O-])c1Cl | -8.9%
43 | CCc1nnc(NC(=O)CS(=O)(=O)c2ccccc2)s1 | 12.1%
44 | CCOC(=O)c1c(NC(=O)CSc2nnc(-c3ccc(Cl)cc3)o2)sc2c1CCC2 | 3.09%
45 | COc1ccc(O)c(/C=N/Nc2nc(Nc3ccccc3)nc(-n3nc(C)cc3C)n2)c1 | 7.08%
46 | O=C1c2cccnc2C(=O)N1Cc1ccccc1 | 4.89%
47 | CCNc1nc(NC(C)C)nc(NS(=O)(=O)c2ccc(C)cc2)n1 | 9.71%
48 | CC1(C)CC(=O)c2cnn(-c3nc4ccccc4[nH]3)c2C1 | 6.98%
49 | CN(C)c1ccc(C(=O)N2CCN(c3cc(C(F)(F)F)nc4ccccc34)CC2)cc1 | 4.98%
50 | O=C(c1ccc(F)cc1)C1CCN(Cc2cn[nH]c2-c2ccccc2)CC1 | -84.2%
51 | O=C(C[n+]1ccc(Cc2ccccc2)cc1)Nc1ccc([N+](=O)[O-])cc1Cl.[Cl-] | 1.51%
52 | COc1ccc(CC(=O)Oc2ccc(F)c(F)c2)cc1S(=O)(=O)N1CCOCC1 | 1.01%
53 | C=CC[n+]1c(C)csc1Nc1ccc(C)cc1.[Br-] | 11.5%
54 | Cc1cc(-c2nnc(CCC(=O)NC(C)c3ccccc3Cl)o2)no1 (stereo not shown) | 5.53%
55 | O=C(Cn1c(=O)oc2ccccc21)Nc1n[nH]c(=S)s1 | 13.7%

From publication PMC4336329 (PLoS ONE, 2015)
